Reference: PubChem BioAssay (Tox21)
Values joined by “and” are separate entries in the source; they are usually repeats but may differ in a detail not shown here. Identical values can stand only once. Inconclusive means that the source gave no clear call. Such entries were picked first, then a sample of the others. A potency beside an inconclusive call is a rough fit, not a confirmed value. The source holds several records for some structures; these can differ, active in one and inactive in another. Active and inactive are the calls of the source. Unless noted, calls follow the shape of the dose curve; as a rule, active = well fitted curve in the direction sought with a large enough effect in the repeat runs; inconclusive = weak or mixed curves; inactive = no such curve, though single readings can be large; an effect the other way counts as inactive or inconclusive.

Legend:
[1] = molecular target: Estrogen receptor (Homo sapiens) (UniProt P03372); assay: qHTS assay to identify small molecule antagonists of the estrogen receptor alpha (ER-alpha) signaling pathway using the BG1 cell line in the presence of 0.1 nM 17-beta-estradiol (AID 1259244); also: nearly all actives have a fitted effect of over 50% in size
UniProt P03372, sequence (P03372 whole entry, looked up): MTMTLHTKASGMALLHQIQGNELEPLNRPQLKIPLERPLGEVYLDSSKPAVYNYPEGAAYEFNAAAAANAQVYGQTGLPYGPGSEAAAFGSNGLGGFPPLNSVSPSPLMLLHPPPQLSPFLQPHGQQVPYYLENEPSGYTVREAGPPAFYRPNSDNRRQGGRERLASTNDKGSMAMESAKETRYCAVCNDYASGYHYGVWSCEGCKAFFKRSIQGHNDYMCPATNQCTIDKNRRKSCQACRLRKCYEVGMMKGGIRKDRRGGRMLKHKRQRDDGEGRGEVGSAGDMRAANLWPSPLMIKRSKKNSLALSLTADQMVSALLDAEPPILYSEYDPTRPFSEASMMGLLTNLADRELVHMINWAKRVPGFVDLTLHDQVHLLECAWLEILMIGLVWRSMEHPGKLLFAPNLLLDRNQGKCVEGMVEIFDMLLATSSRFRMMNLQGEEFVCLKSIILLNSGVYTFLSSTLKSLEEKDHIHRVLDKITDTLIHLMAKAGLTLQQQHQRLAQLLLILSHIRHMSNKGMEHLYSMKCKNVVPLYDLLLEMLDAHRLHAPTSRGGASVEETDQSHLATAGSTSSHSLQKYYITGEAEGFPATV
Method in brief: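 Antagonist mode: compounds in DMSO are pinned onto VM7Luc4E2 reporter cells, 0.1 nM final 17beta-estradiol is added, and after 22 h at 37C luciferase luminescence is measured with ONE-Glo.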

[2] = qHTS assay to identify small molecule HDAC inhibitors - cell viability counter screen (AID 1259365); also: nearly all actives have a fitted effect of over 50% in size
Method in brief: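 CellTiter-Glo luminescence (30 min, room temperature) reported viability after a 2 h compound exposure at 37 C. Cells: wild-type HCT-116, 1,500 per well, seeded the night before.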

[3] = qHTS assay to identify small molecule agonists of the sonic hedgehog signaling (Shh) pathway - cell viability counter screen (AID 1259366); also: nearly all actives have a fitted effect of over 50% in size
Method in brief: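 Cytotoxicity counter screen: CellTiter-Fluor reagent added after 23 h compound exposure, then 1 h at 37C and fluorescence read. Cells were 3T3 Gli1-Luc, seeded 2,000 per well and dosed 4 h post-plating.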

[4] = qHTS assay to identify small molecule agonists of the sonic hedgehog signaling (Shh) pathway (AID 1259368; calls by dose curve; also: nearly all actives have a fitted effect of over 15% in size)
Method in brief: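 Cells of a mouse NIH/3T3 clone stably expressing luciferase under the Gli1 transcriptional response element are exposed to test chemicals for 24 hr at 37 C. Pathway activation is detected as a rise in luminescence.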

[5] = qHTS assay to identify small molecule antagonists of the sonic hedgehog signaling (Shh) pathway - cell viability counter screen (AID 1259367); also: nearly all actives have a fitted effect of over 55% in size
Method in brief: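 Fluorescence read-out (CellTiter-Fluor, 1 hr at 37C) taken after 23 hr compound treatment of 3T3 Gli1-Luc cells stimulated with conditioned medium. Cells were seeded at 2,000 per well and pre-incubated 4 hr.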

[6] = qHTS assay to identify small molecule antagonists of the sonic hedgehog signaling (Shh) pathway (AID 1259369; calls by dose curve; also: nearly all actives have a fitted effect of over 45% in size)
Method in brief: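 Cells are plated and held 4hr at 37 C, compounds (DMSO) are pinned in, conditioned medium is added to stimulate the pathway, and after 24hr luciferase reagent is added for 30min before luminescence is read.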

[7] = qHTS assay to identify small molecule HDAC inhibitors (AID 1259364);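 also: wild-type HCT-116 cells with endogenous class I/II HDAC activity; nearly all actives have a fitted effect of over 45% in size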
Method in brief: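 Cells (HCT-116, wild type) are seeded at 1,500 per well, incubated overnight, treated with compound in DMSO for 2 hr, then developed with HDAC-Glo I/II reagent for 30 min at room temperature.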
Potency is read from the fitted curve at half-maximal effect; tags tell the direction and shape of the fitted curve.

In the case of `O=C(O)c1ccc(-n2nc(-c3ccccc3O)nc2-c2ccccc2O)cc1`, the Potency [1] is reported as inconclusive: 29.8 µM [inhibitor, partial curve].

For `CC1(C)S[C@@H]2[C@H](NC(=O)C(c3ccccc3)S(=O)(=O)O)C(=O)N2[C@H]1C(=O)O` (stereo partly specified), the Potency [1] was “inactive”.

With `CCCCC1C(=O)N(c2ccccc2)N(c2ccc(O)cc2)C1=O` (stereo unspecified) the Potency [2] was inconclusive: 29.8 µM.

For `O=C1c2ccccc2C(=O)C1(O)O`, the Potency [2] was inconclusive: 77.4 µM [cytotoxic, single point], the Potency [3] was inconclusive: 61.4 µM [cytotoxic] and the Potency [4] was inconclusive: 68.9 µM [activator, single point].

With `CC(CO)CO` the Potency [2] was “inactive”.

In the case of `Cc1ccc(O)c(-n2nc3ccccc3n2)c1`, the Potency [2] is reported as inconclusive: 43.3 µM [cytotoxic, partial curve, poor fit], the Potency [5] is reported as inconclusive: 68 µM [cytotoxic, single point] and the Potency [4] is reported as inconclusive: 19.2 µM [activator, partial curve]. The Potency [6] was active: 60.6 µM.

For `C=C[Si](OC(=C)C)(OC(=C)C)OC(=C)C`, the Potency [7] was “inactive” and the Potency [6] was inconclusive: 1.37 µM [inhibitor, single point].

For `Nc1ccn(C2CO[C@H](CO)O2)c(=O)n1` (stereo partly specified), the Potency [2] was “inactive” and the Potency [6] was inconclusive: 18.8 µM [inhibitor, single point].

In the case of `CCCCCCCC/C=C\CCCCCCCC(=O)OC`, the Potency [3] is reported as “inactive”.

For `O=CC(=O)c1ccccc1`, the Potency [2] was inconclusive: 61.2 µM.

In the case of `O=c1c(-c2ccc(O)cc2)coc2cc(O)cc(O)c12`, the Potency [7] is reported as active: 8.49 µM and active: 6.86 µM and active: 9.44 µM and the Potency [6] is reported as active: 10.7 µM and inconclusive: 8.63 µM [inhibitor, full curve] and inconclusive: 13.3 µM [inhibitor, single point].

In the case of `O=c1cc(-c2ccccc2)oc2cc(O)cc(O)c12`, the Potency [3] is reported as active: 48.6 µM.

In the case of `CCOC(=O)C1=C(C)NC(C)=C(C(=O)OC)C1c1cccc(Cl)c1Cl` (stereo unspecified), the Potency [7] is reported as “inactive” and the Potency [6] is reported as inconclusive: 15 µM [inhibitor, partial curve, poor fit].

With `CCCCN(CCCC)c1ccc(C(=O)c2ccccc2C(=O)O)c(O)c1` the Potency [2] was inconclusive: 69.2 µM [cytotoxic, single point].

With `O=C(NS(=O)(=O)/C=C/c1ccccc1)c1ccc(F)cc1Cl` the Potency [2] was “inactive” and the Potency [6] was “inactive”.

For `OC[C@H]1O[C@@H](n2cnc3c(=S)nc[nH]c32)[C@H](O)[C@@H]1O`, the Potency [3] was “inactive”.

For `O=c1c(O)c(-c2ccc(O)cc2O)oc2cc(O)cc(O)c12`, the Potency [7] was inconclusive: 40.7 µM [inhibitor, partial curve, poor fit] and the Potency [6] was inconclusive: 72.4 µM [inhibitor, single point].

With `COC(=O)Nc1nc2ccc(C(=O)c3ccccc3)cc2[nH]1` the Potency [7] was inconclusive: 11.9 µM [inhibitor, partial curve] and the Potency [6] was inconclusive: 1.33 µM [inhibitor, full curve].

For `[Cl][In]([Cl])[Cl]`, the Potency [2] was “inactive”, the Potency [4] was inconclusive: 54.5 µM [activator] and the Potency [6] was inconclusive: 17.7 µM [inhibitor, full curve] and inconclusive: 8.63 µM [inhibitor, full curve].

In the case of `O=C1c2cccc(O)c2C(=O)c2c(O)cccc21`, the Potency [7] is reported as inconclusive: 43.7 µM [inhibitor, partial curve] and inconclusive: 13.3 µM [inhibitor, partial curve, poor fit] and the Potency [6] is reported as inconclusive: 0.106 µM [inhibitor, single point].

In the case of `COc1ccc(C(=O)c2ccccc2)c(O)c1`, the Potency [7] is reported as inconclusive: 54.5 µM [inhibitor, partial curve, poor fit] and the Potency [6] is reported as “inactive”.

With `c1ccc2cc3c4ccccc4c4ccccc4c3cc2c1` the Potency [2] was inconclusive: 68.9 µM [cytotoxic, partial curve, poor fit].

With `NC(=O)OCC(COC(N)=O)c1ccccc1` the Potency [3] was “inactive”.

In the case of `COc1cc(C(=O)NS(=O)(=O)c2ccccc2C)ccc1Cc1cn(C)c2ccc(NC(=O)OC3CCCC3)cc12`, the Potency [2] is reported as “inactive”.

In the case of `Nc1ccc(N)c(Cl)c1`, the Potency [2] is reported as inconclusive: 61 µM [cytotoxic, partial curve, poor fit], the Potency [3] is reported as inconclusive: 68.6 µM [cytotoxic, partial curve, poor fit] and the Potency [5] is reported as inconclusive: 54.4 µM [cytotoxic, partial curve] and inconclusive: 48.6 µM [cytotoxic, partial curve]. For the same compound, the Potency [6] was inconclusive: 8.62 µM [inhibitor, full curve, poor fit].

With `CNc1ccc(O)cc1` the Potency [7] was inconclusive: 30.6 µM [inhibitor, partial curve] and the Potency [6] was inconclusive: 8.62 µM [inhibitor].

In the case of `CCCCCCCCCC(=O)N(C)C`, the Potency [7] is reported as inconclusive: 49.3 µM [inhibitor, partial curve, poor fit] and the Potency [6] is reported as inconclusive: 6.96 µM [inhibitor, single point].

With `Nc1ncnc2c1ncn2[C@@H]1O[C@H](COP(=O)(O)O)[C@@H](O)[C@H]1O` the Potency [2] was inconclusive: 10.6 µM [rising, full curve].

In the case of `CCCCCCCCCCCCCCCC`, the Potency [2] is reported as “inactive” and the Potency [5] is reported as “inactive”.

In the case of `CCCCCCCC[P+](CCCCCCCC)(CCCCCCCC)CCCCCCCC`, the Potency [2] is reported as active: 34.2 µM and the Potency [5] is reported as active: 17.1 µM.

For `NC(=O)c1nc(-c2cccc(-c3cc(F)ccc3OCC(F)(F)C(F)(F)F)c2)n[nH]1`, the Potency [3] was inconclusive: 48.6 µM [cytotoxic, partial curve].

For `Oc1ccc(C2CNCCc3c2cc(O)c(O)c3Cl)cc1` (stereo unspecified), the Potency [2] was “inactive” and the Potency [3] was inconclusive: 33.5 µM [cytotoxic].

In the case of `CO[C@]1(NC(=O)CSC(F)F)C(=O)N2C(C(=O)O)=C(CSc3nnnn3CCO)CO[C@H]21`, the Potency [2] is reported as “inactive” and the Potency [6] is reported as “inactive”.

In the case of `O=C(O)c1cccc(-c2noc(-c3ccccc3F)n2)c1`, the Potency [2] is reported as inconclusive: 26.6 µM [cytotoxic].

With `C[C@]12C=CC(=O)C=C1CC[C@@H]1[C@@H]2C(=O)C[C@@]2(C)[C@H]1CC[C@]2(O)C(=O)CO` the Potency [2] was “inactive”, the Potency [3] was inconclusive: 61.1 µM and the Potency [6] was inconclusive: 218 nM [inhibitor, single point] and inconclusive: 13.3 µM [inhibitor, single point].

In the case of `CS(=O)(=O)c1ccc(-c2cn3ccccc3n2)cc1`, the Potency [2] is reported as inconclusive: 13.3 µM [cytotoxic, partial curve], the Potency [5] is reported as inconclusive: 33.5 µM [cytotoxic, single point] and the Potency [4] is reported as active: 11.9 µM. The Potency [6] was active: 33.5 µM.

In the case of `CN(C/C=C/c1ccccc1)Cc1cccc2ccccc12`, the Potency [2] is reported as inconclusive: 13.3 µM [cytotoxic, partial curve] and the Potency [6] is reported as “inactive”.

In the case of `O=C(O)CCCCCCCCCCCBr`, the Potency [2] is reported as “inactive” and the Potency [6] is reported as inconclusive: 68.7 µM [inhibitor, single point].

For `CC(=O)Nc1cc(S(=O)(=O)O)cc2cc(S(=O)(=O)O)c(N=Nc3ccccc3)c(O)c12`, the Potency [2] was inconclusive: 24.3 µM [cytotoxic, partial curve].

In the case of `NC(N)=NN=C(/C=C/c1ccc([N+](=O)[O-])o1)/C=C/c1ccc([N+](=O)[O-])o1`, the Potency [2] is reported as inconclusive: 33.5 µM [cytotoxic, single point] and the Potency [4] is reported as inconclusive: 3.35 µM [activator, single point].

With `Nc1ncnc2nc[nH]c12` the Potency [2] was inconclusive: 4.33 µM [rising, full curve] and inconclusive: 5.96 µM [rising, full curve].

For `CCCCCCOc1ccccc1C(N)=O`, the Potency [7] was inconclusive: 26.6 µM [inhibitor, partial curve] and the Potency [6] was inconclusive: 29.8 µM [inhibitor, partial curve, poor fit].

With `CCOC(C)=O` the Potency [3] was “inactive”.

With `CCCCCCCC(=O)OC` the Potency [3] was “inactive”.

With `CSC(=O)c1cccc2nnsc12` the Potency [3] was “inactive”.

In the case of `CC(C)(C)NC(=O)[C@@H]1CN(Cc2cccnc2)CCN1C[C@@H](O)C[C@@H](Cc1ccccc1)C(=O)N[C@H]1c2ccccc2C[C@H]1O`, the Potency [3] is reported as inconclusive: 20.3 µM [cytotoxic, partial curve] and inconclusive: 23.7 µM [cytotoxic, partial curve, poor fit] and the Potency [5] is reported as inconclusive: 20.3 µM [cytotoxic, partial curve] and inconclusive: 18.8 µM [cytotoxic, partial curve, poor fit].

For `O=C1c2c(O)cccc2Cc2cccc(O)c21`, the Potency [3] was inconclusive: 60.4 µM [cytotoxic, partial curve, poor fit] and inconclusive: 27.3 µM [cytotoxic, single point].

For `CCCCC1=NC2(CCCC2)C(=O)N1Cc1ccc(-c2ccccc2-c2nn[nH]n2)cc1`, the Potency [3] was active: 4.22 µM.

With `Cc1cc(C2CCCCC2)n(O)c(=O)c1` the Potency [3] was inconclusive: 2.98 µM [cytotoxic, full curve, poor fit] and the Potency [5] was active: 15 µM.

For `CC1=CCC(C(C)C)=CC1`, the Potency [3] was “inactive”.

For `CN(C(=O)CN(CCO)CC(=O)N(C)C(C)(C)Cc1ccccc1)C(C)(C)Cc1ccccc1`, the Potency [3] was inconclusive: 33.5 µM [cytotoxic, single point], the Potency [5] was inconclusive: 21.1 µM [cytotoxic, partial curve, poor fit] and the Potency [6] was inconclusive: 16.8 µM [inhibitor, partial curve].

For `OC(CCN1CCCC1)(c1ccccc1)C1CCCCC1` (stereo unspecified), the Potency [3] was inconclusive: 6.68 µM [cytotoxic, full curve] and the Potency [5] was inconclusive: 9.44 µM [cytotoxic, partial curve, poor fit].
